Results reported in PubChem BioAssay AID504832 (National Center for Advancing Translational Sciences (NCATS), 2011).
Screen size: about 310,000 compounds; about 18,000 (5.8%) were called active. Inconclusive means that the source gave no clear call. Such entries were picked first, then a sample of the others. Calls come from the whole dose curve; as a rule, active = well fitted inhibition curve with a large enough effect; inconclusive = small, poorly fitted or top-dose-only effect, or another doubt; inactive = no such curve, though single readings can be large or run the other way. Potencies of inconclusive entries are left out as doubtful fits.

test: Primary qHTS for delayed death inhibitors of the malarial parasite plastid, 48 hour incubation; details: P. falciparum luciferase growth in erythrocytes; series mostly up to 28.7 µM
In short: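 Read-out is firefly luciferase luminescence from an integrated reporter in P. falciparum, so falling signal marks reduced parasite growth. Infected erythrocytes were at 2% hematocrit and 0.1% parasitemia (final) in Albumax-supplemented RPMI 1640.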
Potency is the fitted concentration of half-maximal effect; tags give direction and shape of the fitted curve.

Row | Compound | Potency
1 | COc1ccccc1Nc1ccc(C(=O)NC2CCCCC2)cn1 | inactive
2 | CCOC(=O)N1CCN(C(=O)CCCn2c(=S)[nH]c3ccccc3c2=O)CC1 | inconclusive [inhibitor, single point]
3 | Cn1c(=O)c(C(=O)CN2CCN(S(=O)(=O)c3ccccc3)CC2)c(N)n(Cc2ccccc2)c1=O | inconclusive [inhibitor, partial curve, poor fit]
4 | Cc1ccccc1-c1nc2c(s1)CCc1onc(-c3ccc(Cl)cc3)c1-2 | inactive
5 | CCOC(=O)c1[nH]c2ccccc2c1NC(=O)CC(C)C | inactive
6 | Cc1cc(-c2sccc2C)nc(-n2cccc2)n1 | inactive
7 | CC(C(=O)Nc1ccccc1-c1ccccc1)N1CCN(Cc2ccccc2)CC1 (configuration not stated) | active: 13.1 µM
8 | Cc1nnc2sc(SCc3cccc(Cl)c3)nn2c1=O | active: 5.86 µM
9 | CC(C)n1cc(CN2CCCC(CO)(Cc3cccc(Cl)c3)C2)cn1 (configuration not stated) | inconclusive [inhibitor, partial curve, poor fit]
10 | CN(CCCC(=O)Nc1ccc(OC(F)F)cc1)S(=O)(=O)c1ccc(F)cc1 | inconclusive [inhibitor, full curve]
11 | Cc1ccc(NC(=O)[C@H](C)NC(=O)C2CCN(C(=O)[C@H](CC(C)C)NC(=O)OC(C)(C)C)CC2)cc1 | inconclusive [inhibitor, partial curve]
12 | CCN(CC(=O)Nc1c(F)cccc1F)C(=O)CCN1C(=O)C2CCCCC2C1=O (configuration not stated) | inconclusive [inhibitor, single point]
13 | O=C(NCCc1ccccc1)C(=O)NCC1CCCN1S(=O)(=O)c1cccs1 (configuration not stated) | inconclusive [inhibitor, single point]
14 | COc1ccc(OC)c(-c2nc(C(=O)NCCCN3CCOCC3)cc3c2[nH]c2ccccc23)c1 | active: 2.33 µM
15 | COc1cc(C)ccc1Oc1nc(-c2ccccc2O)nc2ccccc12 | inconclusive [inhibitor, single point]
16 | Cc1c2ccccc2nc2c(F)c(NC(C)C)c(F)c(F)c12 | inactive
17 | COc1cccc(N=C2SC(C(=O)Nc3ccc(F)cc3)CC(=O)N2C)c1 (configuration not stated) | inconclusive [inhibitor, single point]
18 | CCOC(=O)COc1cc(N2C(=O)CSCC2=O)c(Cl)cc1Cl | inactive
19 | COc1ccc(C2=NOC(C(=O)NCCN3CCOCC3)C2)cc1 (configuration not stated) | inconclusive [inhibitor, full curve]
20 | CN(C)CCCNC(=O)C(=O)Nc1ccc2c(c1)N(S(=O)(=O)c1cccs1)CCC2 | active: 9.28 µM
21 | CCCC(=O)NC(c1ccc(OC)cc1)c1ccc2cccnc2c1O (configuration not stated) | active: 1.31 µM
22 | O=C(Nc1ccc(Br)cc1)c1nn(C23CC4CC(CC(C4)C2)C3)cc1Br | inconclusive [inhibitor, single point]
23 | CCOc1ccc(Cl)cc1S(=O)(=O)N1CCC(C(=O)NCc2ccco2)CC1 | inconclusive [inhibitor, single point]
24 | COc1ccccc1CCNS(=O)(=O)c1cn(C)c(=O)n(C)c1=O | inconclusive [inhibitor, single point]

Row | Compound | Potency
25 | O=C(CSC(=S)N1CCCC1)N(Cc1nnc(-c2ccccc2Cl)o1)C1CC1 | inconclusive [inhibitor, single point]
26 | O=C(NCC1CCCCC1)c1ccc(Cl)c(S(=O)(=O)N2CCOCC2)c1 | inconclusive [inhibitor, partial curve, poor fit]
27 | CCCCn1c(O)c(C(CC)=NCc2cc(OC)cc(OC)c2)c(=O)[nH]c1=O | inactive
28 | Cc1cc(C(F)(F)F)n(-c2nc(C(=O)Nc3cccnc3)cs2)n1 | inactive
29 | O=C(NCC1CCCC(CNC(=O)Nc2ccc(Cl)cn2)C1)Nc1ccc(Cl)cn1 (configuration not stated) | inconclusive [inhibitor, partial curve]
30 | CCCS(=O)(=O)c1ccc(COC(=O)c2cccc(NC(=O)C(C)C)c2)cc1 | inconclusive [inhibitor, partial curve]
31 | COc1ccc([C@H](C)NC[C@H](O)c2ccc(O)c(NC=O)c2)cc1 | inconclusive [inhibitor, single point]
32 | O=C(O)CCc1nc2cccnc2n1Cc1ccccc1 | inactive
33 | CN(C)CCOC(C1CCCCC1)C1CCCCC1 | inconclusive [inhibitor, single point]
34 | Cn1nnnc1SCc1ccc(Cl)cc1 | inconclusive [inhibitor, partial curve, poor fit]
35 | CCN(CC)S(=O)(=O)c1cc(C(=O)Nc2cc(C)on2)ccc1Cl | inconclusive [inhibitor, full curve, poor fit]
36 | Cc1nc(SCC#N)c2c3c(sc2n1)CCC3 | inactive
37 | CC(CNc1ccc([N+](=O)[O-])cc1)NC(=O)c1ccccc1Br (configuration not stated) | inconclusive [inhibitor, single point]
38 | Cc1cc(N2CCC(C)CC2)n2ncc(-c3ccccc3)c2n1 | inactive
39 | CN1OC(COC(=O)c2ccccc2)CC1c1ccccc1 (configuration not stated) | inactive
40 | CC1(C)N=C(N)N=C(N)N1c1ccc(Oc2ccc(Cl)cc2)c(Cl)c1 | active: 0.208 µM
41 | O=C(NNC(=O)c1ccc(Br)o1)c1csc(N2CCOCC2)n1 | inactive
42 | CC(C)(C)c1ccc(C(=O)NC2CCN(Cc3ccccc3)CC2)cc1 | inconclusive [inhibitor, full curve]
43 | Cc1cccc(OCC(=O)Nc2ccccc2N2CCCC2)c1C | inconclusive [inhibitor, partial curve, poor fit]
44 | O=C(Nc1ccc(-c2cccc(F)c2)cc1)C1CCCN(Cc2ccccn2)C1 (configuration not stated) | inconclusive [inhibitor, single point]
45 | O=C(Cc1ccc(S(=O)(=O)N2CCOCC2)s1)Oc1ccc(F)cc1 | inactive
46 | N#CC(c1ccc(Cl)cc1)(c1ncc(C(F)(F)F)cc1Cl)N1CCOCC1 (configuration not stated) | inconclusive [inhibitor, single point]
47 | COc1cc2c(cc1NC(=O)CSc1nnc(COc3ccc(Cl)cc3)n1C)oc1ccccc12 | inconclusive [inhibitor, single point]
48 | Cc1ccc(-c2nc3ccccc3nc2-c2ccccc2)cc1 | inactive

Row | Compound | Potency
49 | CC(=O)c1cc(-c2ccccc2)n(CC(=O)NC2CCCCC2)c1C | inactive
50 | COc1ccc2c(c1OC)C(=O)OC2CC(=O)c1ccc(O)cc1 (configuration not stated) | inconclusive [inhibitor, full curve, poor fit]
51 | Cc1cccc(NC(=O)CCN2C(=O)C3C4C=CC(C4)C3C2=O)c1 (configuration not stated) | inactive
52 | CCOC(=O)c1cnc2cc(Cl)c(OC)cc2c1NCC1CCCO1 (configuration not stated) | inconclusive [inhibitor, partial curve]
53 | CCOC(=O)N1CCN(C(=O)C2CCC(=O)N(Cc3ccc(Cl)cc3)C2)CC1 (configuration not stated) | inactive
54 | Cc1c(Cl)ccc2c(C(=O)NCCN3CCCCC3)cc(-c3ccccn3)nc12 | inconclusive [inhibitor, single point]
55 | Clc1cccc(-c2nc(NCCCN3CCOCC3)c3ccccc3n2)c1 | inconclusive [inhibitor, single point]
56 | CN1CCN(c2ccccc2NC(=O)c2cccc(OCc3ccccc3)c2)CC1 | active: 5.22 µM
57 | CCC(Sc1nc2n[nH]c(C)c2c(=N)n1-c1cccc(Cl)c1)C(=O)NCCOC (configuration not stated) | inconclusive [inhibitor, partial curve, poor fit]
58 | CCOc1ccc(S(=O)(=O)Nc2ccc(C(=O)NCC(C)(C)N3CCOCC3)cc2)cc1 | inconclusive [inhibitor, single point]
59 | COc1cccc(C2C(C(C)=O)=C(O)C(=O)N2CCNCCO)c1 (configuration not stated) | inactive
60 | CCc1ccc(/C(C)=N/NC(=O)c2c[nH]c3ccccc23)s1 | inconclusive [inhibitor, partial curve]
61 | O=C1Nc2ccc(Cl)cc2C12OCCCO2 | inactive
62 | Cc1c(Cl)cccc1NC(=S)N(Cc1ccccc1)Cc1cccnc1 | active: 10.4 µM
63 | Cc1[nH]c2ccccc2c1C(=O)C(=O)N1CC(C)OC(C)C1 (configuration not stated) | inconclusive [inhibitor, single point]
64 | COc1ccc(NC(=S)NCCNC(C)=O)cc1 | inactive
65 | CC(C)NC(=O)COC(=O)Cn1[nH]c(=O)c2ccccc2c1=O | inactive
66 | CCC(C)(C)NC(=O)C(c1cccs1)N(C(=O)c1ccn[nH]1)c1ccccc1 (configuration not stated) | inconclusive [inhibitor, partial curve, poor fit]
67 | Nn1cnnc1N/N=C/c1ccc(Cl)c([N+](=O)[O-])c1 | inconclusive [inhibitor, partial curve, poor fit]
68 | COc1cc(/C=C2\SC(c3ccc(C)cc3)=NC2=O)cc(OC)c1OC | inconclusive [inhibitor, single point]
69 | O=C(CN(C(=O)c1csnn1)c1ccc(F)c(Cl)c1)NCc1ccc(F)cc1 | inconclusive [inhibitor, single point]
70 | COc1ccccc1NC(=O)C1=C(C)Nc2nc(CCCO)nn2C1c1ccc2c(c1)OCO2 (configuration not stated) | inconclusive [inhibitor, single point]
71 | FC(F)(F)c1cccc(Cn2nnnc2-c2cccc(C(F)(F)F)c2)c1 | inconclusive [inhibitor, single point]
72 | O=S(=O)(NC1c2cccc3cccc(c23)C1N1CCN(CCO)CC1)c1ccccc1 (configuration not stated) | active: 14.7 µM
